Assay [1] concerns the target T1, Drosophila MBP–Orc3 insertion (residues 371–559) (Drosophila melanogaster) (UniProt Q7K2L1).
T1 sequence: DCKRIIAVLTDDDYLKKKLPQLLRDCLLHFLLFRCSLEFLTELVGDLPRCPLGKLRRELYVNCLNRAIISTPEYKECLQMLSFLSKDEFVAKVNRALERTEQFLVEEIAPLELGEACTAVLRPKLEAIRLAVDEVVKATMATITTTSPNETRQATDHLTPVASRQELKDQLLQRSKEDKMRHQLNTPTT
As to the kind of experiment: pull-down; N-terminally MBP-tagged bait and N-terminally 6×His-tagged prey (with further ORC subunits where named) co-expressed in High5 cells by baculovirus co-infection; clarified lysate (50 mM Tris HCl pH 7.8, 300 mM KCl, 10% glycerol, 1 mM DTT; 0.78 M ammonium sulfate step) on amylose beads, three washes; Coomassie-stained SDS-PAGE, anti-His Western blot for some preys.

Assay [2] concerns the target T2, Drosophila MBP–Orc3, full-length (Drosophila melanogaster) (UniProt Q7K2L1).
T2 sequence: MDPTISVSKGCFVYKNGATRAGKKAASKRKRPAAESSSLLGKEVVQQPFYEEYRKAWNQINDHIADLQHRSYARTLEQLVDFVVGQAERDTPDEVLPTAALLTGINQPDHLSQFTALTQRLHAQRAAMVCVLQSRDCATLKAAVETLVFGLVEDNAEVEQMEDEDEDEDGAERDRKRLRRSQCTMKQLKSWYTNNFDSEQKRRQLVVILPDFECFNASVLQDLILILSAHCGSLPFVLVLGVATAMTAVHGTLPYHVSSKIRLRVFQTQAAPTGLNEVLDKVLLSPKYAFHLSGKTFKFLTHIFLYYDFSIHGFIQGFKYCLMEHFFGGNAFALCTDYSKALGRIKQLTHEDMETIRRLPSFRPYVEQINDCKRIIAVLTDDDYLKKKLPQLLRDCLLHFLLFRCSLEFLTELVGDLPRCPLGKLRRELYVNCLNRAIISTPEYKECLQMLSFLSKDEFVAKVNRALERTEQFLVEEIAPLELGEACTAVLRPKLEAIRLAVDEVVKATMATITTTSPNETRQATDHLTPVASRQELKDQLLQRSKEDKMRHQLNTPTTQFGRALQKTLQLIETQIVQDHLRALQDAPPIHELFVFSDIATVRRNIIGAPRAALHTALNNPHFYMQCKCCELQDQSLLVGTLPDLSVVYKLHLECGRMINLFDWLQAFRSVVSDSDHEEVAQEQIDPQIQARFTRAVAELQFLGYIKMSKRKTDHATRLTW
Described as above.

No constants are given. Whether binding was seen depends on the method and setting. In cells and extracts the contact can be indirect. Some binding calls cover weakened binding; strength is not graded here. Sequences can lack the tags named with a protein.

B1: Drosophila Orc6 C-terminal domain (187–257), N-terminal 6×His (domain or fragment, Drosophila melanogaster, UniProt Q9Y1B2 187-257, looked up)
chain: KESKVPSSTDMEGKLKENQNENIKGHEAKKAHKPPPEDYEIWKARMLAKAQAKLKELEASQSHMDSQLLEA
modifications: Alexa Fluor 488 on the N-terminus (only in the fluorescence anisotropy assay)
notes: Drosophila Orc6, residues 187-257 (C-terminal domain); not detected in Western blots of whole-cell extract, but seen in the pull-downs; also called Orc6 187–257; Orc6 CTD; source: High5 cells (baculovirus): in lysate of co-infected cells; also purified (HisTrap, gel filtration); not shown: 6×His, N-terminal, kept
For B1, the binding entry in assay [1] and in assay [2] was “binds” each time.

B2: Drosophila Orc6 1–200, N-terminal 6×His (domain or fragment, UniProt Q9Y1B2 1-200)
chain: MTTLIEQLITKMGLREEPNVLEKTTELVRLLELRSTNVPLQINEYGKIVLCADLASCMIGIAFDKEQALKLSGLRKSQYLNNKRMFEKLLDLNKLASVNDICVQLGLNEVARKAEELMTLFKGVAATEDMGTDTSHPQYATMAVFQACRLLKKKVSKSKLMPFSNLRPSQFQLLEQQWERMIAKHHKESKVPSSTDMEGK
modifications: Alexa Fluor 488 on the N-terminus (only in the fluorescence anisotropy assay)
For B2, the binding entry in assay [1] and in assay [2] was “no binding” throughout.

B3: Drosophila Orc6 1–220, N-terminal 6×His (domain or fragment, UniProt Q9Y1B2 1-220)
chain: MTTLIEQLITKMGLREEPNVLEKTTELVRLLELRSTNVPLQINEYGKIVLCADLASCMIGIAFDKEQALKLSGLRKSQYLNNKRMFEKLLDLNKLASVNDICVQLGLNEVARKAEELMTLFKGVAATEDMGTDTSHPQYATMAVFQACRLLKKKVSKSKLMPFSNLRPSQFQLLEQQWERMIAKHHKESKVPSSTDMEGKLKENQNENIKGHEAKKAHKP
modifications: Alexa Fluor 488 on the N-terminus (only in the fluorescence anisotropy assay)
Take B3: the binding entry in assay [1] and in assay [2] was “no binding” in each case.

B4: Drosophila Orc6 94–257, N-terminal 6×His (domain or fragment, UniProt Q9Y1B2 94-257)
chain: KLASVNDICVQLGLNEVARKAEELMTLFKGVAATEDMGTDTSHPQYATMAVFQACRLLKKKVSKSKLMPFSNLRPSQFQLLEQQWERMIAKHHKESKVPSSTDMEGKLKENQNENIKGHEAKKAHKPPPEDYEIWKARMLAKAQAKLKELEASQSHMDSQLLEA
As to B4, the binding entry in assay [1] and in assay [2] was “binds” throughout.

B5: Drosophila Orc6 1–232, N-terminal 6×His (domain or fragment, UniProt Q9Y1B2 1-232)
chain: MTTLIEQLITKMGLREEPNVLEKTTELVRLLELRSTNVPLQINEYGKIVLCADLASCMIGIAFDKEQALKLSGLRKSQYLNNKRMFEKLLDLNKLASVNDICVQLGLNEVARKAEELMTLFKGVAATEDMGTDTSHPQYATMAVFQACRLLKKKVSKSKLMPFSNLRPSQFQLLEQQWERMIAKHHKESKVPSSTDMEGKLKENQNENIKGHEAKKAHKPPPEDYEIWKARM
modifications: Alexa Fluor 488 on the N-terminus (only in the fluorescence anisotropy assay)
Turning to B5, the binding entry in assay [1] and in assay [2] was “no binding” throughout.

B6: Drosophila Orc6-Y225S, N-terminal 6×His (protein, UniProt Q9Y1B2 1-257)
chain: MTTLIEQLITKMGLREEPNVLEKTTELVRLLELRSTNVPLQINEYGKIVLCADLASCMIGIAFDKEQALKLSGLRKSQYLNNKRMFEKLLDLNKLASVNDICVQLGLNEVARKAEELMTLFKGVAATEDMGTDTSHPQYATMAVFQACRLLKKKVSKSKLMPFSNLRPSQFQLLEQQWERMIAKHHKESKVPSSTDMEGKLKENQNENIKGHEAKKAHKPPPEDSEIWKARMLAKAQAKLKELEASQSHMDSQLLEA
modifications: Alexa Fluor 488 on the N-terminus (only in the fluorescence anisotropy assay)
With B6, the binding result in assay [2] is recorded as “binds weakly”.

B7: Drosophila Orc6-W228A/K229A, N-terminal 6×His (protein, UniProt Q9Y1B2 1-257)
chain: MTTLIEQLITKMGLREEPNVLEKTTELVRLLELRSTNVPLQINEYGKIVLCADLASCMIGIAFDKEQALKLSGLRKSQYLNNKRMFEKLLDLNKLASVNDICVQLGLNEVARKAEELMTLFKGVAATEDMGTDTSHPQYATMAVFQACRLLKKKVSKSKLMPFSNLRPSQFQLLEQQWERMIAKHHKESKVPSSTDMEGKLKENQNENIKGHEAKKAHKPPPEDYEIAAARMLAKAQAKLKELEASQSHMDSQLLEA
modifications: Alexa Fluor 488 on the N-terminus (only in the fluorescence anisotropy assay)
For B7, the binding result in assay [1] and in assay [2] was “no binding” each time.

B8: Drosophila Orc6, full-length (1–257), N-terminal 6×His (natural protein, Drosophila melanogaster, UniProt Q9Y1B2 1-257, looked up)
chain: MTTLIEQLITKMGLREEPNVLEKTTELVRLLELRSTNVPLQINEYGKIVLCADLASCMIGIAFDKEQALKLSGLRKSQYLNNKRMFEKLLDLNKLASVNDICVQLGLNEVARKAEELMTLFKGVAATEDMGTDTSHPQYATMAVFQACRLLKKKVSKSKLMPFSNLRPSQFQLLEQQWERMIAKHHKESKVPSSTDMEGKLKENQNENIKGHEAKKAHKPPPEDYEIWKARMLAKAQAKLKELEASQSHMDSQLLEA
modifications: Alexa Fluor 488 on the N-terminus (only in the fluorescence anisotropy assay)
notes: Drosophila Orc6, residues 1-257; also called wild-type Orc6; Orc6 WT; source: High5 cells (baculovirus): in lysate of co-infected cells; also purified (HisTrap, gel filtration); not shown: 6×His, N-terminal, kept
With B8, the binding entry in assay [1] and in assay [2] was “binds” throughout.

B9: Drosophila Orc2 in untagged recombinant ORC (natural protein, Drosophila melanogaster, UniProt Q24168 1-618, looked up)
chain: MSASNKGGYKTPRKENLMSIENLTNSEEESEDLNTAMVGNAVESQPKVTSRRSTRRPSPTKKYQAYQKESNGKGQEERIVVNYVEMSDERSSDAEDQEEEESIEESENAARPAAKDLHLIQSEYNVAGTSMFGFNTPKKRDAMALAALNATPCTPKTPKTPRLGVKTPDTKRKKSMDQPKTPAHVRTRVKKQIAKIVADSDEDFSGDESDFRPSDEESSSSSSSSDAGNSSDNDAADDEPKTPSRARRAIVVPVLPKTPSAARLRQSARAKKSNEFVPESDGYFHSHASSKILTSDHTLDRLKNPRLAADRVFSLLSEIKTSAEHEGSINAIMEEYRSYFPKWMCILNEGFNILLYGLGSKHQLLQSFHREVLHKQTVLVVNGFFPSLTIKDMLDSITSDILDAGISPANPHEAVDMIEEEFALIPETHLFLIVHNLDGAMLRNVKAQAILSRLARIPNIHLLASIDHINTPLLWDQGKLCSFNFSWWDCTTMLPYTNETAFENSLLVQNSGELALSSMRSVFSSLTTNSRGIYMLIVKYQLKNKGNATYQGMPFRDLYSSCREAFLVSSDLALRAQLTEFLDHKLVKSKRSVDGSEQLTIPIDGALLQQFLEEQEKK
notes: Drosophila Orc2, no purification tag; source: High5 cells co-infected with six baculoviruses, co-purified (Ni, amylose, TEV, gel filtration)
For B9, the binding result is “no binding” in assay [1] and “binds” in assay [2].

B10: Drosophila Orc6 147–257, N-terminal 6×His (domain or fragment, UniProt Q9Y1B2 147-257)
chain: ACRLLKKKVSKSKLMPFSNLRPSQFQLLEQQWERMIAKHHKESKVPSSTDMEGKLKENQNENIKGHEAKKAHKPPPEDYEIWKARMLAKAQAKLKELEASQSHMDSQLLEA
B10: the binding result in assay [1] and in assay [2] was “binds” throughout.

For the origin of these results see article PMC3791464 (eLife, 2013).
